Measured values published in the supplement of paper PMC11876631.
± gives the standard deviation of the averaged measurements. Laboratory Escherichia coli strains with one amino-acid change in an essential protein, pooled on minimal glucose agar with carbenicillin or gentamicin at twice the control MIC (plus kanamycin and chloramphenicol for the plasmids), 48 h. Fold change of barcode share against drug-free plates; higher = less susceptible. Active = above 20 in both replicates (the paper's putatively resistant). '<' = one read or none on drug, '>' = one read or none on a drug-free plate. Shares are relative, so most strains fall below 1 when a few take over. Listed are strains with at least 15 reads on both drug-free plates, and hits; most hits rest on fewer reference reads. Replicate rank correlation about 0.5. Edits are read from barcodes.

Target: Escherichia coli (laboratory strain)
Test: barcode share on antibiotic plates over drug-free plates; higher = less susceptible
Experimental: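 A pool of E. coli strains, each edited to carry one amino-acid change in an essential protein, was grown for 48 h on minimal glucose agar with or without antibiotic; strain barcodes were sequenced; mean of two replicates.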

[1] = antibiotic: carbenicillin, 2× MIC (3.1 µg/mL)
[2] = antibiotic: gentamicin, 2× MIC (MIC 0.45 µg/mL)

B1: serB I65A (protein)
chain: MPNITWCDLPEDVSLWPGLPLSLSGDEVMPLDYHAGRSGWLLYGRGLDKQRLTQYQSKLGAAMVAVAAWCVEDYQVIRLAGSLTARATRLAHEAQLDVAPLGKIPHLRTPGLLVMDMDSTAIQIECIDEIAKLAGTGEMVAEVTERAMRGELDFTASLRSRVATLKGADANILQQVRENLPLMPGLTQLVLKLETLGWKVAIASGGFTFFAEYLRDKLRLTAVVANELEIMDGKFTGNVIGDIVDAQYKAKTLTRLAQEYEIPLAQTVAIGDGANDLPMIKAAGLGIAYHAKPKVNEKAEVTIRHADLMGVFCILSGSLNQK
[1]
  fold change of barcode share: 0.334 ± 0.093
[2]
  fold change of barcode share: 0.0139 ± 0.0077

B2: serB I65P (protein)
chain: MPNITWCDLPEDVSLWPGLPLSLSGDEVMPLDYHAGRSGWLLYGRGLDKQRLTQYQSKLGAAMVPVAAWCVEDYQVIRLAGSLTARATRLAHEAQLDVAPLGKIPHLRTPGLLVMDMDSTAIQIECIDEIAKLAGTGEMVAEVTERAMRGELDFTASLRSRVATLKGADANILQQVRENLPLMPGLTQLVLKLETLGWKVAIASGGFTFFAEYLRDKLRLTAVVANELEIMDGKFTGNVIGDIVDAQYKAKTLTRLAQEYEIPLAQTVAIGDGANDLPMIKAAGLGIAYHAKPKVNEKAEVTIRHADLMGVFCILSGSLNQK
[1]
  fold change of barcode share: 0.227 ± 0.068
[2]
  fold change of barcode share: < 0.00903

B3: serB V71A (protein)
chain: MPNITWCDLPEDVSLWPGLPLSLSGDEVMPLDYHAGRSGWLLYGRGLDKQRLTQYQSKLGAAMVIVAAWCAEDYQVIRLAGSLTARATRLAHEAQLDVAPLGKIPHLRTPGLLVMDMDSTAIQIECIDEIAKLAGTGEMVAEVTERAMRGELDFTASLRSRVATLKGADANILQQVRENLPLMPGLTQLVLKLETLGWKVAIASGGFTFFAEYLRDKLRLTAVVANELEIMDGKFTGNVIGDIVDAQYKAKTLTRLAQEYEIPLAQTVAIGDGANDLPMIKAAGLGIAYHAKPKVNEKAEVTIRHADLMGVFCILSGSLNQK
[1]
  fold change of barcode share: 0.566 ± 0.08
[2]
  fold change of barcode share: 0.0103 ± 0.0014

B4: serB V71W (protein)
chain: MPNITWCDLPEDVSLWPGLPLSLSGDEVMPLDYHAGRSGWLLYGRGLDKQRLTQYQSKLGAAMVIVAAWCWEDYQVIRLAGSLTARATRLAHEAQLDVAPLGKIPHLRTPGLLVMDMDSTAIQIECIDEIAKLAGTGEMVAEVTERAMRGELDFTASLRSRVATLKGADANILQQVRENLPLMPGLTQLVLKLETLGWKVAIASGGFTFFAEYLRDKLRLTAVVANELEIMDGKFTGNVIGDIVDAQYKAKTLTRLAQEYEIPLAQTVAIGDGANDLPMIKAAGLGIAYHAKPKVNEKAEVTIRHADLMGVFCILSGSLNQK
[1]
  fold change of barcode share: 0.5 ± 0.054
[2]
  fold change of barcode share: 0.00859 ± 0.0069

B5: serB V71Q (protein)
chain: MPNITWCDLPEDVSLWPGLPLSLSGDEVMPLDYHAGRSGWLLYGRGLDKQRLTQYQSKLGAAMVIVAAWCQEDYQVIRLAGSLTARATRLAHEAQLDVAPLGKIPHLRTPGLLVMDMDSTAIQIECIDEIAKLAGTGEMVAEVTERAMRGELDFTASLRSRVATLKGADANILQQVRENLPLMPGLTQLVLKLETLGWKVAIASGGFTFFAEYLRDKLRLTAVVANELEIMDGKFTGNVIGDIVDAQYKAKTLTRLAQEYEIPLAQTVAIGDGANDLPMIKAAGLGIAYHAKPKVNEKAEVTIRHADLMGVFCILSGSLNQK
[1]
  fold change of barcode share: 0.392 ± 0.15
[2]
  fold change of barcode share: 0.0136 ± 0.003

B6: serB V71D (protein)
chain: MPNITWCDLPEDVSLWPGLPLSLSGDEVMPLDYHAGRSGWLLYGRGLDKQRLTQYQSKLGAAMVIVAAWCDEDYQVIRLAGSLTARATRLAHEAQLDVAPLGKIPHLRTPGLLVMDMDSTAIQIECIDEIAKLAGTGEMVAEVTERAMRGELDFTASLRSRVATLKGADANILQQVRENLPLMPGLTQLVLKLETLGWKVAIASGGFTFFAEYLRDKLRLTAVVANELEIMDGKFTGNVIGDIVDAQYKAKTLTRLAQEYEIPLAQTVAIGDGANDLPMIKAAGLGIAYHAKPKVNEKAEVTIRHADLMGVFCILSGSLNQK
[1]
  fold change of barcode share: 0.549 ± 0.29
[2]
  fold change of barcode share: < 0.0078

B7: secY F286P (protein)
chain: MAKQPGLDFQSAKGGLGELKRRLLFVIGALIVFRIGSFIPIPGIDAAVLAKLLEQQRGTIIEMFNMFSGGALSRASIFALGIMPYISASIIIQLLTVVHPTLAEIKKEGESGRRKISQYTRYGTLVLAIFQSIGIATGLPNMPGMQGLVINPGFAFYFTAVVSLVTGTMFLMWLGEQITERGIGNGISIIIFAGIVAGLPPAIAHTIEQARQGDLHFLVLLLVAVLVFAVTFFVVFVERGQRRIVVNYAKRQQGRRVYAAQSTHLPLKVNMAGVIPAIFASSIILPPATIASWFGGGTGWNWLTTISLYLQPGQPLYVLLYASAIIFFCFFYTALVFNPRETADNLKKSGAFVPGIRPGEQTAKYIDKVMTRLTLVGALYITFICLIPEFMRDAMKVPFYFGGTSLLIVVVVIMDFMAQVQTLMMSSQYESALKKANLKGYGR
[1]
  fold change of barcode share: 0.339 ± 0.076
[2]
  fold change of barcode share: < 0.0033
